Source: PubChem BioAssay AID652104 (National Center for Advancing Translational Sciences (NCATS), 2013)
Out of some 410,000 compounds screened, about 7,200 (1.8%) were called active. This list was built around the results that the source calls inconclusive (neither active nor inactive); the mix of calls is not that of the screen. Calls follow the shape of the dose curve; as a rule, active = well fitted activation curve with a large enough effect; inconclusive = small, poorly fitted or top-dose-only effect, or another doubt; inactive = no such curve, though single readings can be large or run the other way. Potencies of inconclusive entries are left out as doubtful fits.

Assay: qHTS of TDP-43 Inhibitors; also: nearly all actives have a fitted effect of over 50% in size; as to growth rescue (activation): % of control where 0% means no effect
Details: TDP-43 expressing yeast growth rescue, BacTiter-Glo, 24 h; growth rescue (activation): at 46.1 µM (top of the series) unless noted
Method in brief: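 In this qHTS, compounds that restore growth of yeast expressing TDP-43 appear as activators. Cells (OD600=0.02, galactose medium, raffinose-pregrown) are incubated with compound 24 hr at 30 deg C and growth is quantified by BacTiter-Glo.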
Potency is read from the fitted curve at half-maximal effect; tags tell the direction and shape of the fitted curve.

| SMILES | Potency | growth rescue (activation) |
| --- | --- | --- |
| Cc1cc(=O)[nH]c(SCc2nnnn2-c2ccc(Cl)cc2)n1 | inconclusive [activator, full curve] |  |
| Cn1c2ccccc2c2ccc3c(c21)C(=O)C=CC3=O |  | inconclusive: -91% [activator] |
| NNc1nc2c(-c3cccc(C(F)(F)F)c3)nnn2c2ccccc12 | inactive |  |
| CCN(CC)C(=O)CSCc1cnn(-c2ccccc2)c1-n1cccc1 | active: 17.8 µM |  |
| Cc1cc(F)ccc1NC(=S)NC1CCCC1 | inactive |  |
| Cc1ccc(-n2c(=O)c3c(c4cc(C)ccc4n3C)n(Cc3ccc(F)cc3)c2=O)cc1 | inactive |  |
| CCOC(=O)N1CCN(CC(=O)Nc2sc(CC)cc2C(=O)c2ccc(OC)cc2)CC1 | inconclusive [activator, partial curve] |  |
| COc1ccc(NC(=O)N2CCCC(c3ccccc3)C2)cc1 (centres undefined) | inconclusive [activator, partial curve] |  |
| COc1ccc(C)cc1NC(=O)C(OC(=O)c1ccc([N+](=O)[O-])o1)c1ccccc1 (centres undefined) | inconclusive [activator, single point] |  |
| c1ccc(Nc2ncnc3sccc23)cc1 | inconclusive [activator, single point] |  |
| Cc1ccc(S(=O)(=O)C(CNC(=O)C(=O)NCCc2ccc(Cl)cc2)c2cccs2)cc1 (centres undefined) | inactive |  |
| CCOC(=O)C1(C)CCN1C(=O)c1cc(-c2ccc(Cl)cc2)oc1C (centres undefined) | inconclusive [activator, single point] |  |
| O=S(=O)(NCCOCC(F)(F)F)c1ccc2oc3ccccc3c2c1 | inconclusive [activator, partial curve, poor fit] |  |
| O=C(CC1N=C2c3ccccc3N=C(SCc3cccc(Cl)c3)N2C1=O)NCCc1ccccc1 (centres undefined) | inconclusive [activator, partial curve] |  |
| COc1ccccc1CC(=O)N1CCN(c2ccc(F)cc2)CC1 | inconclusive [activator, single point] |  |
| Cc1cccc(N2C(=O)CC(N3CCC(c4nc5ccccc5[nH]4)CC3)C2=O)c1 (centres undefined) | inconclusive [activator, single point] |  |
| Oc1ccc(Br)cc1-c1nc2cnccn2c1NC1CCCC1 | active: 22.4 µM |  |
| CCCOc1ccc(C(=O)NCc2ccco2)cc1 | inconclusive [activator, partial curve] |  |
| CCN(C(=O)c1c(C)oc2ncn(CC(C)C)c(=O)c12)c1cccc(Cl)c1 | inconclusive [activator, single point] |  |
| CCC(C)C1NC(=S)N(Cc2ccccc2)C1=O (centres undefined) | inconclusive [activator, single point] |  |
| C[C@]12c3[nH]c4cc(-c5ccco5)ccc4c3CCN1C(=O)[C@@H](CC(=O)NCCC1=CCCCC1)C[C@@H]2C(=O)N1CCCCC1 | inconclusive [activator, single point] |  |
| O=C(Nc1ccccc1)c1cc(C2COCCN2C(=O)CCCc2ccccc2)on1 (centres undefined) | inconclusive [activator, partial curve] |  |
| COc1ccc(-c2c(C#Cc3ccsc3)c3cc(-c4ccc5c(c4)OCCO5)ccc3n2C)cc1 | inactive |  |

| SMILES | Potency | growth rescue (activation) |
| --- | --- | --- |
| O=C(COC(=O)c1cccnc1Cl)NC1CCCc2ccccc21 (centres undefined) | inconclusive [activator, partial curve] |  |
| Cc1ccc(C)c(Nc2nn3c(=O)c4cc5c(cc4nc3s2)OCO5)c1 | inconclusive [activator, full curve] |  |
| CCN1CCN(CCCNC(=O)Cn2c(-c3cccs3)cc3cc(F)ccc32)CC1 | inactive |  |
| COCc1cccc(-c2csc(C(C)(O)c3cccc(F)c3)n2)c1 (centres undefined) | active: 35.5 µM |  |
| COc1cccc(C(=O)Nc2ccc3ccccc3c2)c1 | inconclusive [activator, full curve] |  |
| COc1ccc(CCNS(=O)(=O)c2cc(-c3onc(C)c3C)ccc2OC)cc1OC | inconclusive [activator, full curve] |  |
| CCCNC1=C(N(C(C)=O)c2cccc(F)c2)C(=O)c2ccccc2C1=O | inconclusive [activator, single point] |  |
| CC(C)(C)OC(=O)NCCc1nnc(SCc2ccc(Cl)cc2)o1 | active: 17.8 µM |  |
| CCOC(=O)c1[nH]c(C)c(C(=O)c2cc(F)ccc2F)c1C | inconclusive [activator, single point] |  |
| CCS(=O)(=O)c1ccccc1C(=O)Nc1ccc(-c2nc3ccccc3s2)cc1 | inconclusive [activator, full curve, poor fit] |  |
| O=C(CNC(=O)c1ccc(Cl)cc1)OCC(=O)c1ccc2c(c1)OCCO2 | inactive |  |
| COc1cc(OC)c(NC(=O)C(Cc2ccccc2)NS(=O)(=O)c2cccc3nsnc23)cc1Cl (centres undefined) | inactive |  |
| COc1ccc(-c2csc(C(C)(O)c3cccc(F)c3)n2)cc1OC (centres undefined) | active: 35.5 µM |  |
| O=C(OCC(=O)N1CCCc2ccccc21)c1ccc(S(=O)(=O)C(F)F)cc1 |  | inconclusive: 35.7% [activator] |
| CCCC1C2C(=O)N(c3ccc(OC)cc3)C(=O)C2ON1c1ccccc1 (centres undefined) | inconclusive [activator, partial curve] |  |
| COc1ccc(OC(C)C(=O)NCc2nc(-c3cccc(C)c3)no2)cc1 (centres undefined) | inconclusive [activator, partial curve] |  |
| O=C(/C=C/c1ccc(Cl)cc1)NC(=S)Nc1ccc(NC(=O)c2ccco2)cc1 | inconclusive [activator, partial curve] |  |
| Cc1ccccc1-c1cc(C(=O)NCc2cccc(Br)c2)n(CC2CC(c3cccnc3)=NO2)n1 (centres undefined) | inconclusive [activator, single point] |  |
| CCn1cc(C(=O)NCCOC)c(=O)c2ccc(C)nc21 | inconclusive [activator, single point] |  |
| Cc1ccc(NC(=O)c2ccc(CNS(=O)(=O)c3ccc4c(c3)C(C)(C)C(=O)N4C)cc2)cc1F | inconclusive [activator, partial curve] |  |
| CCc1ccc(S(=O)(=O)N(C(=O)c2ccncc2)c2ccc(OC(=O)c3ccncc3)cc2)cc1 | inconclusive [activator, partial curve, poor fit] |  |
| COc1ccc(CC(=O)N(Cc2nc(-c3ccc(C)cc3)no2)C(C)C)cc1 | inconclusive [activator, partial curve] |  |
| O=C(CSc1nc2nccnc2c(=O)n1CCc1c[nH]c2ccccc12)Nc1ccc(F)cc1 | inactive |  |

| SMILES | Potency | growth rescue (activation) |
| --- | --- | --- |
| COc1ccc(N2CCN(C(=O)CN(c3ccc(OC)cc3)S(=O)(=O)c3ccccc3)CC2)cc1 | inconclusive [activator, partial curve] |  |
| O=C(COC(=O)c1ccco1)Nc1cc(S(=O)(=O)N2CCCCC2)ccc1Cl | inconclusive [activator, partial curve] |  |
| CSc1nn(Cc2cccc(Cl)c2)c(N(C(C)=O)C(C)=O)c1S(=O)(=O)c1ccccc1 | active: 11.2 µM |  |
| COC(=O)c1c(NC(=O)C2COc3ccccc3O2)sc2c1CCN(Cc1ccccc1)C2 (centres undefined) | inactive |  |
| COCCOC(=O)/C(=C\c1cc(C(C)(C)C)c(O)c(C(C)(C)C)c1)C(C)=O | inconclusive [activator, single point] |  |
| COc1ccccc1CNc1nc2cc(-c3ccc(OC)c(OC)c3)sc2c(=O)n1C | inconclusive [activator, single point] |  |
| O=C(COc1ccc(F)cc1Cl)NC1CCCCCC1 | inconclusive [activator, partial curve] |  |
| CCOC(=O)C1=CCN(S(=O)(=O)c2ccccc2)C1c1ccccc1 (centres undefined) | inconclusive [activator, single point] |  |
| Cc1ccccc1-c1noc(-c2ccc(N3CCN(C)CC3)c([N+](=O)[O-])c2)n1 | inactive |  |
| O=C(CSc1ccccc1Cl)c1ccco1 | active: 15.8 µM |  |
| CCOc1ccc(CNC(=O)Cn2ccc3cc(S(=O)(=O)N4CCCCC4)ccc32)cc1 | inactive |  |
| COc1ccc(F)cc1S(=O)(=O)n1nnc2ccccc21 | active: 10 µM |  |
| Cc1cc[n+](CC(=O)c2ccc3c(c2)OCCO3)cc1 | inactive |  |
| Cc1ccc([N+](=O)[O-])cc1N=Nc1c(C)[nH]n(C(N)=S)c1=O | inconclusive [activator, partial curve] |  |
| COc1cc(OC)cc(C(=O)Nc2cc(-c3nc4cccnc4s3)ccc2C)c1 | inactive |  |
| Cc1cccc(OCCCSc2nc3ccccc3[nH]2)c1 | active: 20 µM |  |
| Cc1cc(CCNC=O)c(C)c2c1oc1ccccc12 | inconclusive [activator, single point] |  |
| COc1ccc(-c2cnc3c(c2)C(=O)N([C@H](C)CO)C[C@@H](C)[C@H](CN(C)Cc2ccccc2)O3)cc1 | inconclusive [activator, partial curve] |  |
| Oc1c(Br)cc(Br)cc1CNc1cnc2ccccc2c1 | active: 20 µM |  |
| O=C(O)C1=CC[C@@H](c2ccc(Cl)cc2)N(S(=O)(=O)c2ccc(Cl)cc2)[C@H]1c1cccc(Cl)c1 | inactive |  |
| COc1ccc(/C=C/C(=O)O)cc1Cl | inconclusive [activator, single point] |  |
| COc1ccc(-c2csc(NC(=O)Cc3ccccc3F)n2)cc1OC |  | inconclusive: 202% [activator] |
| O=C(Cn1c(SCC(=O)Nc2ccc(F)cc2)nc2ccccc21)NCc1ccccc1Cl | inactive |  |
